# Test results as given in PubChem BioAssay AID504832 (National Center for Advancing Translational Sciences (NCATS), 2011).
# Among all 310,000 compounds or so, about 18,000 (5.8%) were called active. The inconclusive results got no clear call from the source; some entries with a clear call stand among them for comparison. The call rests on the fitted dose curve; in most records, active means well fitted inhibition curve with a large enough effect; inconclusive means small, poorly fitted or top-dose-only effect, or another doubt; inactive means no such curve, though single readings can be large or run the other way. Potencies of inconclusive entries are left out as doubtful fits.
# Assay: Primary qHTS for delayed death inhibitors of the malarial parasite plastid, 48 hour incubation
# Settings: P. falciparum luciferase growth in erythrocytes; series mostly up to 28.7 µM; activity change, negative = inhibition: at the top concentration
# How it was run: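 Luciferase-expressing parasites in RBCs, 2% Hct / 0.1% parasitemia final; RPMI 1640 + 0.5% Albumax; 37 C, 5% CO2, one generation; luminescence read-out, lower signal = inhibition.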
# On the % scale 0 is the no-effect control and ±100 the full control effect; potency means the concentration at half of the fitted maximal effect; tags describe the fitted curve by direction and shape.
SMILES,Potency,"activity change, negative = inhibition"
O=C(Nc1cccc(-c2cccc(F)c2)c1)C1CCN(CC2CCOC2)CC1 (stereo not drawn),"inconclusive [inhibitor, single point]",
CCC(C)NC(=O)c1cn(CC)c2ccc(S(=O)(=O)N3CCCCC3)cc2c1=O (stereo not drawn),"inconclusive [inhibitor, single point]",
CCOC(=O)C1=C(c2ccccc2)NC(=S)NC1C (stereo not drawn),"inconclusive [inhibitor, full curve, poor fit]",
O=C(CSc1nc2ccccc2c(=O)n1CC1CCCO1)NCC1CCCO1 (stereo not drawn),,inactive: -12.2%
O=C(NCc1ccco1)NC1CCCCC1,"inconclusive [inhibitor, partial curve, poor fit]",
Cc1ccc(NC(=O)CCc2nc3sc4c(c3c(=O)[nH]2)CCCC4)nc1,"inconclusive [inhibitor, single point]",
COc1ccc(NC(=O)C2CCN(c3cc(-c4ccccc4)nc4ncnn34)CC2)cc1OC,"inconclusive [inhibitor, single point]",
CC1CN(CCc2ccccc2)c2nc3c(c(=O)[nH]c(=O)n3C)n2C1 (stereo not drawn),"inconclusive [inhibitor, single point]",
O=C1CC(NNC(=O)c2cccc(F)c2)C(=O)N1 (stereo not drawn),"inconclusive [inhibitor, full curve]",
C=CCn1c(O)c(N=NC(=S)Nc2ccccc2F)c2ccccc21,"inconclusive [inhibitor, partial curve, poor fit]",
O=C(COc1ccc2c(c1)oc(=O)c1ccccc12)NCCCN1CCOCC1,"inconclusive [inhibitor, single point]",
COC1(NC(=O)c2ccccc2)C(C)=CC(=O)C=C1C,,inactive: 60.3%
CCC1COC(c2cccn2Cc2ccc(Cl)cc2)=N1 (stereo not drawn),,inactive: 46.4%
O=C(NCCCN1CCN(Cc2ccccc2)CC1)C1CCN(S(=O)(=O)N2CCC3(CC2)OCCO3)CC1,"inconclusive [inhibitor, full curve, poor fit]",
CCN1CCCC1CN(Cc1cc2cc(C)ccc2[nH]c1=O)C(=O)Nc1ccccc1OC (stereo not drawn),"inconclusive [inhibitor, single point]",
O=C(/C=C/Nc1ccc(S(=O)(=O)Nc2ncccn2)cc1)c1cccs1,,inactive: 41.2%
COc1cccc(C2CC(c3ccccc3)=NN2S(=O)(=O)c2ccccc2)c1OC (stereo not drawn),"inconclusive [inhibitor, partial curve, poor fit]",
Cc1cc(C)nc(Sc2c(C)nn(-c3ccccc3)c2C)n1,"inconclusive [inhibitor, partial curve]",
O=C(N/N=C/c1cccc(F)c1)c1ccc(Cl)cc1,,inactive: 98%
NCCNC(=O)c1c(NC(=O)c2ccccc2)sc2c1CCCC2,"inconclusive [inhibitor, single point]",
CCCCn1nc(C(=O)Nc2ccc3c(c2)OCCO3)c2ccccc2c1=O,"inconclusive [inhibitor, partial curve]",
CCOC(=O)c1cc(C#N)c(N2CCN(C(=O)c3ccccc3)CC2)nc1C(F)(F)F,"inconclusive [inhibitor, single point]",
Cc1cc(F)ccc1NC(=O)Cn1c(C)csc1=O,"inconclusive [inhibitor, single point]",

SMILES,Potency,"activity change, negative = inhibition"
CC(C)CNS(=O)(=O)c1ccc(CCC(=O)Nc2ccc3c(c2)OCCO3)cc1,active: 11.7 µM,
O=C(Nc1cccnc1)c1cc(-c2ccc(Br)cc2)nc2ccccc12,"inconclusive [inhibitor, full curve]",
CC(C)c1nnc(NC(=O)CCC(=O)NC2CCCc3ccccc32)s1 (stereo not drawn),,inactive: 1.62%
CN(C)S(=O)(=O)c1ccc(N2CCCC2)c(C(=O)N2CCN(c3ccc([N+](=O)[O-])cc3)CC2)c1,"inconclusive [inhibitor, single point]",
Cn1c(SCC(=O)Nc2ccccc2)nc2ccccc2c1=O,"inconclusive [inhibitor, partial curve, poor fit]",
Cc1noc(C)c1CC(=O)N1CCCC(C(=O)c2ccc(C(C)(C)C)cc2)C1 (stereo not drawn),"inconclusive [inhibitor, partial curve, poor fit]",
CCC(=O)Nc1ccc(N2CCOCC2)c(S(=O)(=O)Nc2ccc(Cl)cc2)c1,"inconclusive [inhibitor, single point]",
COc1cc(C)nc(Oc2ccc(OCCOc3ccc(C)cc3)nn2)n1,,inactive: -28.9%
COc1ccc(CCC(=O)OCC(=O)Nc2c(C)n(C)n(-c3ccccc3)c2=O)cc1,,inactive: -3.23%
CC1=CC(C)(C)N2C(=O)C(=Nc3ccc(O)cc3)c3cccc1c32,"inconclusive [inhibitor, partial curve, poor fit]",
COc1ccccc1C1CC(c2ccc(NS(C)(=O)=O)cc2)=NN1S(=O)(=O)c1ccccc1 (stereo not drawn),"inconclusive [inhibitor, single point]",
CCOC(=O)C1=C(N)Oc2cc(O)ccc2C1c1ccccc1 (stereo not drawn),,inactive: 0%
Cc1ccc(C)c(N=Nc2nc3ccccc3n2C)c1,active: 0.522 µM,
CCOc1ccc(N(CC(=O)NCCc2ccc(F)cc2)S(=O)(=O)c2ccccc2)cc1,"inconclusive [inhibitor, single point]",
CCN1C(=O)C(C(=O)Nc2ccc(OC)cc2)C2CC1(C)Oc1ccccc12 (stereo not drawn),"inconclusive [inhibitor, partial curve, poor fit]",
O=C(NC1CCC(O)CC1)c1cccc2cccnc12 (stereo not drawn),,inactive: 12.4%
CC(/C=C1\SC(=S)N(c2ccc(C(=O)O)cc2)C1=O)=C\c1ccccc1,active: 4.65 µM,
O=C(NC1CCCCC1)N(Cc1nc2ccccc2c(=O)[nH]1)C1CCCCC1,"inconclusive [inhibitor, partial curve]",
O=C(COc1ncnc2sccc12)Nc1cccc(S(=O)(=O)N2CCCC2)c1,"inconclusive [inhibitor, partial curve, poor fit]",
COC(=O)C1=C(c2ccc(F)cc2OCc2ccccc2)C[C@@H]2CC[C@H]1N2C(=O)NCCNC(C)=O,"inconclusive [inhibitor, single point]",
Cc1cc(C)n2c(SCC(=O)Nc3ccccc3C#N)nnc2n1,,inactive: -22.4%
CN(Cc1cccnc1)Cc1cn(C)nc1-c1ccc(Oc2ccccc2)cc1,"inconclusive [inhibitor, single point]",
CCOc1ccc(S(=O)(=O)N2CCN(C(=O)c3cc(C4CC4)nn3-c3ccccc3)CC2)cc1,active: 4.65 µM,

SMILES,Potency,"activity change, negative = inhibition"
CC1CCN(S(=O)(=O)N2CCC(C(=O)NCCc3ccccc3)CC2)CC1,,inactive: -16.3%
CCN(CC(=O)Nc1ccc(NC(C)=O)cc1)C(=O)Cc1cccc2ccccc12,,inactive: 1.06%
COc1ccc2oc(=O)c(C(=O)NCCc3ccc(OC)c(OC)c3)cc2c1,"inconclusive [inhibitor, full curve, poor fit]",
CC(OC(=O)c1cc(=O)[nH]c2ccccc12)C(=O)Nc1ccccc1F (stereo not drawn),,inactive: 7.97%
COc1ccc(OCc2nnc(SCC(=O)Nc3ccccc3F)o2)cc1,,inactive: 9.79%
COc1ccccc1Nc1nnc(SCC(=O)N2CC(=O)Nc3ccccc32)s1,"inconclusive [inhibitor, single point]",
CC1(C)CC(=O)c2sc(NC(=O)c3ccc4ncsc4c3)nc2C1,,inactive: 41.9%
CCCOc1ccc(NC(=O)CC2C(=O)N(C)C(=S)N2Cc2cccs2)cc1 (stereo not drawn),active: 11.7 µM,
O=C(NCCCN1CCOCC1)c1ccc2c(c1)N(Cc1ccccc1)C(=O)c1ccccc1S2=O (stereo not drawn),"inconclusive [inhibitor, single point]",
Cc1nnc(NC(=O)c2cccc(NC(=O)C(C)C)c2)s1,"inconclusive [inhibitor, partial curve, poor fit]",
Cn1c(=O)c(C(=O)NNC(=O)c2ccccc2Br)c(O)c2ccccc21,,inactive: 6.46%
CCCCCCOc1ccc(/C(C)=N/NC2=NCCN2)cc1[N+](=O)[O-],"inconclusive [inhibitor, full curve]",
CCCc1cc(=O)[nH]c(SCC(=O)Nc2ccc([N+](=O)[O-])cc2C#N)n1,"inconclusive [inhibitor, single point]",
COc1ccc(N2CC(C(=O)Nc3c(C(N)=O)oc4ccccc34)CC2=O)cc1 (stereo not drawn),"inconclusive [inhibitor, single point]",
O=c1ccnc(SCCC(F)=C(F)F)[nH]1,"inconclusive [inhibitor, single point]",
CCN(CC)CCCNC(=O)CCC(=O)Nc1ccc2nc(N3CCC(C)CC3)cc(C)c2c1,"inconclusive [inhibitor, single point]",
COc1ccc(CNC(=O)COc2ccc(S(=O)(=O)N3CCOCC3)cc2)cc1,"inconclusive [inhibitor, partial curve, poor fit]",
C/C(Cc1ccccc1)=N\NC(=O)CNC(=O)Cc1ccc(Cl)cc1,,inactive: 7.16%
CCOC(=O)c1sc(NC(=O)C2CC(=O)N(c3ccc(OC)cc3)C2)nc1C (stereo not drawn),,inactive: 0.233%
CCOc1ccc(NC(=O)c2ccccc2OC)cc1,,inactive: 77.2%
COc1ccc(C2C(C(=O)N3CCN(c4ccc(OC)cc4)CC3)c3ccccc3C(=O)N2C)cc1 (stereo not drawn),"inconclusive [inhibitor, single point]",
Cc1ccc(C)c(-c2cc(C(=O)Nc3sc(C)c(C)c3C(N)=O)c3ccccc3n2)c1,"inconclusive [inhibitor, partial curve]",
